The values that follow come from patent publication US8512970B2, “Rapid bioluminescence detection assay” (The Secretary of State for Health, priority 2009, dated 2013).

This data set is described as follows: Stability of recombinant AK enzymes after 80° C. for 30 minutes in crude E. coli lysate. The conditions noted are these: 80° C. for 30 minute, 10-fold serial dilutions from 1 mg/ml total cellular protein.

B1: T. maritima: Adenylate kinase (AK) from Thermotoga maritima, monomer; reporter kinase (protein, UniProt Q9X1I8 1-220, looked up)
Adenylate kinase: MMAYLVFLGPPGAGKGTYAKRLQEITGIPHISTGDIFRDIVKKENDELGKKIKEIMERGELVPDELVNEVVKRRLSEKDCERGFILDGYPRTVAQAEFLDGFLKTQNKELTAAVLFEVPEEVVVQRLTARRICPKCGRIYNLISLPPKEDELCDDCKVKLVQREDDKEETVRHRYKVYLEKTQPVIDYYDKKGILKRVDGTIGIDNVIAEVLKIIGWSDK
With B1, the “stability of recombinant enzyme” value was “significantly greater stability than the other enzymes tested”.
